From PubChem BioAssay AID270 (DTP/NCI, 2004)
“And” between values parts separate entries of the source, which are not always exact repeats. Equal values may be shown once. This continues a long series; more values of the same kind are listed elsewhere. Records with an inconclusive call do not appear. How the source made its calls: active means survival T/C of 150% or more; inactive means T/C below 125% in these data.

Tested on: BDF1 mice, s.c. Lewis lung carcinoma, T/C %
Test: NCI In Vivo Anticancer Drug Screen. Data for tumor model Lewis Lung Carcinoma (subcutaneous) in B6D2F1 (BDF1) mice
Protocol: The antitumor activity of compounds was measured in mice bearing transplantable tumors. Survival or tumor size were measured and the results are expressed as the measurement made in the treated group (T) divided by the measurement made in the vehicle treated control group (C). The tumor model used in this assay is Lewis Lung Carcinoma (subcutaneous) in B6D2F1 (BDF1) mice

Measured: T/C

O=P1(N(CCCl)CCCl)NCCCO1 (configuration not stated)
active: endpoint: mean survival time, dose: 200.0 mg/kg/injection, schedule: Q08DX002 (ip), vehicle: saline, higher = longer survival 250 % of control | endpoint: median survival time, dose: 67.0 mg/kg/injection, schedule: Q01DX005 (ip), vehicle: saline, higher = longer survival 439 % of control | endpoint: median survival time, dose: 100.0 mg/kg/injection, schedule: Q01DX005 (ip), vehicle: saline, higher = longer survival 323 % of control and 439 % of control | endpoint: median survival time, dose: 100.0 mg/kg/injection, schedule: Q04DX003 (sc), vehicle: saline, higher = longer survival 245 % of control and 309 % of control | endpoint: median survival time, dose: 150.0 mg/kg/injection, schedule: Q04DX003 (ip), vehicle: saline, higher = longer survival 254 % of control | endpoint: median survival time, dose: 200.0 mg/kg/injection, schedule: Q01DX001 (ip), vehicle: water, higher = longer survival 363 % of control | endpoint: median survival time, dose: 200.0 mg/kg/injection, schedule: Q08DX002 (ip), vehicle: saline, higher = longer survival 250 % of control | endpoint: median survival time, dose: 225.0 mg/kg/injection, schedule: Q07DX004 (ip), vehicle: saline, higher = longer survival 246 % of control | endpoint: median survival time, dose: 300.0 mg/kg/injection, schedule: Q01DX001 (ip), vehicle: water, higher = longer survival 363 % of control | endpoint: median survival time, dose: 400.0 mg/kg/injection, schedule: Q01DX001 (ip), vehicle: saline, higher = longer survival 243 % of control | endpoint: median survival time, dose: 556.0 mg/kg/injection, schedule: Q01DX001 (ip), vehicle: saline, higher = longer survival 245 % of control

CC1CCC(NC(=O)N(CCCl)N=O)CC1 (configuration not stated)
106 % of control: endpoint: median tumor weight (est.), dose: 54.0 mg/kg/injection, schedule: Q01DX001 (ip), vehicle: saline with Tween-80, higher = larger tumour
active: endpoint: median survival time, dose: 8.0 mg/kg/injection, schedule: Q01DX001 (ip), vehicle: saline + alcohol, higher = longer survival 171 % of control | endpoint: median survival time, dose: 10.0 mg/kg/injection, schedule: Q04DX003 (ip), vehicle: other, higher = longer survival 197 % of control | endpoint: median survival time, dose: 10.0 mg/kg/injection, schedule: Q07DX002 (ip), vehicle: saline + alcohol, higher = longer survival 179 % of control | endpoint: median survival time, dose: 15.0 mg/kg/injection, schedule: Q01DX005 (ip), vehicle: saline with Tween-80, higher = longer survival 218 % of control and 439 % of control | endpoint: median survival time, dose: 15.0 mg/kg/injection, schedule: Q04DX004 (ip), vehicle: saline with Tween-80, higher = longer survival 179 % of control and 197 % of control and 303 % of control | endpoint: median survival time, dose: 16.0 mg/kg/injection, schedule: Q01DX001 (ip), vehicle: saline + alcohol, higher = longer survival 171 % of control | endpoint: median survival time, dose: 16.0 mg/kg/injection, schedule: Q01DX002 (ip), vehicle: gum acacia, higher = longer survival 221 % of control | endpoint: median survival time, dose: 16.0 mg/kg/injection, schedule: Q02DX002 (ip), vehicle: gum acacia, higher = longer survival 195 % of control | endpoint: median survival time, dose: 16.0 mg/kg/injection, schedule: Q03DX002 (ip), vehicle: gum acacia, higher = longer survival 192 % of control | endpoint: median survival time, dose: 16.0 mg/kg/injection, schedule: Q04DX002 (ip), vehicle: gum acacia, higher = longer survival 252 % of control | endpoint: median survival time, dose: 16.0 mg/kg/injection, schedule: Q07DX002 (ip), vehicle: saline with Tween-80, higher = longer survival 170 % of control | endpoint: median survival time, dose: 20.0 mg/kg/injection, schedule: Q01DX001 (ip), vehicle: saline with Tween-80, higher = longer survival 211 % of control | endpoint: median survival time, dose: 20.0 mg/kg/injection, schedule: Q07DX002 (ip), vehicle: saline + alcohol, higher = longer survival 197 % of control | endpoint: median survival time, dose: 24.0 mg/kg/injection, schedule: Q01DX002 (ip), vehicle: gum acacia, higher = longer survival 178 % of control | endpoint: median survival time, dose: 24.0 mg/kg/injection, schedule: Q02DX002 (ip), vehicle: gum acacia, higher = longer survival 391 % of control | endpoint: median survival time, dose: 24.0 mg/kg/injection, schedule: Q03DX002 (ip), vehicle: gum acacia, higher = longer survival 391 % of control | endpoint: median survival time, dose: 24.0 mg/kg/injection, schedule: Q04DX002 (ip), vehicle: gum acacia, higher = longer survival 356 % of control | endpoint: median survival time, dose: 24.0 mg/kg/injection, schedule: Q05DX002 (ip), vehicle: gum acacia, higher = longer survival 391 % of control | endpoint: median survival time, dose: 24.0 mg/kg/injection, schedule: Q06DX002 (ip), vehicle: gum acacia, higher = longer survival 391 % of control and 448 % of control | endpoint: median survival time, dose: 24.0 mg/kg/injection, schedule: Q07DX002 (ip), vehicle: saline with Tween-80, higher = longer survival 205 % of control | endpoint: median survival time, dose: 24.0 mg/kg/injection, schedule: Q10DX002 (ip), vehicle: gum acacia, higher = longer survival 173 % of control | endpoint: median survival time, dose: 25.0 mg/kg/injection, schedule: Q04DX004 (ip), vehicle: saline with Tween-80, higher = longer survival 180 % of control and 336 % of control | endpoint: median survival time, dose: 28.0 mg/kg/injection, schedule: Q01DX001 (ip), vehicle: gum acacia, higher = longer survival 179 % of control | endpoint: median survival time, dose: 30.0 mg/kg/injection, schedule: Q07DX002 (ip), vehicle: saline + alcohol, higher = longer survival 195 % of control | endpoint: median survival time, dose: 32.0 mg/kg/injection, schedule: Q01DX001 (ip), vehicle: saline + alcohol, higher = longer survival 211 % of control | endpoint: median survival time, dose: 40.0 mg/kg/injection, schedule: Q01DX001 (ip), vehicle: saline with Tween-80, higher = longer survival 178 % of control and 211 % of control | endpoint: median survival time, dose: 54.0 mg/kg/injection, schedule: Q01DX001 (ip), vehicle: saline with Tween-80, higher = longer survival 204 % of control | endpoint: median survival time, dose: 107.0 mg/kg/injection, schedule: Q01DX001 (ip), vehicle: saline with Tween-80, higher = longer survival 185 % of control
104 % of control: endpoint: median tumor weight (est.), dose: 81.0 mg/kg/injection, schedule: Q01DX001 (ip), vehicle: saline with Tween-80, higher = larger tumour
96 % of control: endpoint: median tumor weight (est.), dose: 36.0 mg/kg/injection, schedule: Q01DX001 (ip), vehicle: saline with Tween-80, higher = larger tumour
85 % of control: endpoint: median tumor weight (est.), dose: 120.0 mg/kg/injection, schedule: Q01DX001 (ip), vehicle: saline with Tween-80, higher = larger tumour
59 % of control: endpoint: median tumor weight (est.), dose: 50.0 mg/kg/injection, schedule: Q01DX001 (ip), vehicle: saline with Tween-80, higher = larger tumour
48 % of control: endpoint: median tumor weight (est.), dose: 150.0 mg/kg/injection, schedule: Q01DX001 (ip), vehicle: saline with Tween-80, higher = larger tumour
inactive: endpoint: median survival time, dose: 71.0 mg/kg/injection, schedule: Q01DX001 (ip), vehicle: saline with Tween-80, higher = longer survival 123 % of control
55 % of control: endpoint: median tumor weight (est.), dose: 75.0 mg/kg/injection, schedule: Q01DX001 (ip), vehicle: saline with Tween-80, higher = larger tumour
